Test results as given in article PMC4336329 (PLoS ONE, 2015).
In all, about 310,000 compounds went through this assay and about 2,200 (0.71%) showed an effect of 50% or more. Effects have a minus sign here. Some of the results follow.

biological target: human ether-à-go-go-related gene (hERG) potassium channel (human, UniProt Q12809); assay: primary screen, population patch clamp on CHO cells stably expressing hERG
Sequence (Q12809 whole entry, looked up): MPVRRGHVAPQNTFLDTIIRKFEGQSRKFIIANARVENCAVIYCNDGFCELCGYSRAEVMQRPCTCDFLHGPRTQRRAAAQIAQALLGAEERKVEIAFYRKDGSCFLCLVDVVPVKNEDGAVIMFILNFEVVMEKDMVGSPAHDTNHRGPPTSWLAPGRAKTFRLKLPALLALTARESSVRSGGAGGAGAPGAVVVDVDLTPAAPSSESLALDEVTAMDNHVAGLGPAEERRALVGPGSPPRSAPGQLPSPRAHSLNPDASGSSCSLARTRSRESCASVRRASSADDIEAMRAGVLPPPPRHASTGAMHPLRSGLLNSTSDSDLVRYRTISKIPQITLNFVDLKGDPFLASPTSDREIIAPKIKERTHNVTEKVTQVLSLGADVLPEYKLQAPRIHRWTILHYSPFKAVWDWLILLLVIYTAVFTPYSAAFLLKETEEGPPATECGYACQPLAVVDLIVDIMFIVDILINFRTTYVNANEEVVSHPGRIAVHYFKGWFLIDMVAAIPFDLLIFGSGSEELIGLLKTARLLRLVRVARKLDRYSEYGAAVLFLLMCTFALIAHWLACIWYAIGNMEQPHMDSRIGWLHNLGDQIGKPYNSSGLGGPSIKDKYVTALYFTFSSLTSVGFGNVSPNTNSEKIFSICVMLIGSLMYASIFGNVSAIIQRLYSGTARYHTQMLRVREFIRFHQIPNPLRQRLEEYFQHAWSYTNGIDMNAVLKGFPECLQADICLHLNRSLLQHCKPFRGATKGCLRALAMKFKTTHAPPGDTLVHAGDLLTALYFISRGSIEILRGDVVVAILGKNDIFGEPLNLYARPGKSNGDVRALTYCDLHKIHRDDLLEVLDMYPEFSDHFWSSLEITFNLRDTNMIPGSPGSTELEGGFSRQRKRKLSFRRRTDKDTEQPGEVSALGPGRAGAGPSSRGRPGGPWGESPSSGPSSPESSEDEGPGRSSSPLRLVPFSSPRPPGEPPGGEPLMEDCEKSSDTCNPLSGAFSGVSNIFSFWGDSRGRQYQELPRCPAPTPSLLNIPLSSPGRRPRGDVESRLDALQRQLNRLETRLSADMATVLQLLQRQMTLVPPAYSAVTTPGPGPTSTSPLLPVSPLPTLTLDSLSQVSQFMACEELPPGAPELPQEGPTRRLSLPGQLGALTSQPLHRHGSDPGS

Row | Structure (SMILES) | hERG current change (%, negative = inhibition) at 1uM [%]
1 | Cc1cc(C(=O)N/N=C2\CC(=O)CC(C)(C)C2)c(C)n1-c1ccccc1 | 14.7
2 | COc1ccc(CN2CCNC(=O)C2CC(=O)N(C)Cc2nonc2C)c(F)c1 (centres unmarked) | 2.96
3 | Cc1cccc(NC(=O)CN(C)S(=O)(=O)c2ccc(Cl)cc2)n1 | 7.22
4 | CC(C)(C)C1CCC2(CC1)C(Nc1cccc(C(F)(F)F)c1)=NC(=S)N2CC#N (centres unmarked) | 10.6
5 | CC(C)CSc1n[nH]c(=S)s1 | 8.74
6 | c1ccc(Oc2cccc(CN3CCCCC3)c2)cc1 | 0.0293
7 | COc1cccc2cc(C(=O)N3CCCc4ccccc43)oc12 | 3.23
8 | COC(=O)Cc1ccc(N(Cc2ccccc2F)S(=O)(=O)c2ccc(Cl)cc2)cc1 | 6.65
9 | CCCCNS(=O)(=O)c1ccc(S(=O)(=O)N2CCC3(CC2)OCCO3)cc1 | 9
10 | Nc1nnc(SCC(=O)NC2CCCCC2)n1-c1ccccc1 | 10.3
11 | CC(C)[C@@H](C(=O)N1CCNCC1)n1cc(CCO)nn1.Cl | 13.1
12 | COC(=O)C1=C(c2ccc3ccccc3c2)C[C@@H]2CC[C@H]1N2C(=O)NCC1CC1 | 1.51
13 | O=C(CCC(=O)c1ccccc1)NCc1ccccc1 | -2.28
14 | CC(=O)Oc1ccccc1C1=NN(C(=O)/C=C/c2ccccc2)C(c2ccccc2)C1 (centres unmarked) | 12.4
15 | Cc1nc2ccc(S(=O)(=O)NCC(=O)N3CCOCC3)cc2s1 | 5.69
16 | CCOc1ccc(NC(=O)NC2CC(=O)N(c3ccc(OC)cc3)C2)cc1 (centres unmarked) | 11.6
17 | CC1CCCCN1CCNC(=O)C1CCN(S(=O)(=O)c2cccc3nsnc23)CC1 (centres unmarked) | 12.7
18 | c1cnn(Cc2cnc(N3CCOCC3)s2)c1 | 16.7
19 | O=C(N/N=C/c1ccc([N+](=O)[O-])cc1)c1cccc2cc[nH]c12 | 8.62
20 | CNC(=S)N1CCC(n2cnc3ccccc32)CC1 | 11.3
21 | CC(C)(C)c1ccc(-c2cc(N)n[nH]2)cc1 | 4.93
22 | Cc1cccn2c(=O)c(/C=C(\C#N)C(N)=O)c(Oc3ccccc3)nc12 | 8.69
23 | CCCOc1ccc(/C=N/NC(=S)Nc2ccccc2[N+](=O)[O-])c(O)c1 | 15.7

Row | Structure (SMILES) | hERG current change (%, negative = inhibition) at 1uM [%]
24 | Cc1cc(C)c(C(=O)/C=C/c2cccs2)c(=O)[nH]1 | 5.18
25 | COC(=O)C1=CN(C)C=C(C(=O)OC)C1c1ccc(Cl)cc1Cl | 9.91
26 | CN1CCN(S(=O)(=O)c2ccc3c4c(cccc24)C(=O)N3)CC1 | -0.479
27 | O=C(Cc1ccc(Cl)cc1)Nc1ccc(Cl)cn1 | 4.12
28 | O=C(NCc1ccccc1)c1ccc(OCC2CCCO2)cc1 (centres unmarked) | 7.33
29 | CCC1=C/C(=C/N(C)c2ccccc2)C(=O)S1 | -2.8
30 | O=S(=O)(c1ccc(-c2csc(-c3cccnc3)n2)cc1)N1CCOCC1 | 7.21
31 | COC(=O)c1ccc(COc2ccc3c4c(c(=O)oc3c2)CCC4)o1 | 7.49
32 | CCOC(=O)CNC(=S)N(CCCN1CCCCCC1)Cc1cccs1 | -38.1
33 | CCN(C(=O)Cn1c(=O)oc2ccccc21)c1cccc(C)c1 | 14.3
34 | COc1ccc(NC(=O)COc2ccc3c(c2)OCO3)cc1 | 17.1
35 | COC(=O)[C@H](CCSC)NC(=O)Nc1ccc(C)cc1 | 9.47
36 | O=C(Nc1ccc2nc3n(c(=O)c2c1)CCCC3)c1cccc(F)c1 | -16.4
37 | CCOc1ccc(-c2nnn(CC(=O)NCc3ccc4c(c3)OCO4)n2)cc1 | -0.994
38 | O=C(O)c1cccc(S(=O)(=O)Nc2ccccc2Cl)c1 | -10.2
39 | Cn1c(CNc2ccc(Br)cc2)nc2ccccc21 | 5.94
40 | Cc1cc(=O)[nH]c(SCC(=O)N2CCC(Cc3ccccc3)CC2)n1 | 1.08
41 | CN(C)c1ccc(C2C3CCCc4ccccc4C3=NN2C)cc1 (centres unmarked) | 7.05
42 | CCOC(=O)CC(=O)Nc1nc2ccccc2s1 | 5.39
43 | C=CCn1c(O)c(C=Nc2ccccc2)sc1=S | 11.9
44 | CC(C)(C)C(CO)NC(=O)c1ccc[nH]1 (centres unmarked) | 10.3
45 | Cc1cc(C(=O)NCc2ccc(S(N)(=O)=O)cc2)c(C)o1 | 5
46 | COC(=O)c1ccc(-c2noc(CN(Cc3ccncc3)CC3CCCO3)n2)cc1 (centres unmarked) | -8.53

Row | Structure (SMILES) | hERG current change (%, negative = inhibition) at 1uM [%]
47 | O=C(CSc1ccc(-c2ccncc2)nn1)N1CCCCC1 | 1.39
48 | CC1CN(C(=O)CN2C(=O)c3ccccc3C2=O)CC(C)O1 (centres unmarked) | 14.8
49 | Cc1ccc(C(=O)c2ccc(O)cc2)cc1C | 6.98
50 | CNC(=O)c1[nH]cnc1C(=O)Nc1cccc(C)c1 | -6.37
51 | CCN(CC)S(=O)(=O)c1ccc2oc(C(=O)N3CCOCC3)c(C)c2c1 | -6.98
52 | Clc1cccc(NCc2nnc(SCc3ccccc3)o2)c1 | 4.55
53 | COc1ccccc1NC(=O)Cc1nnc(SCC(=O)c2ccc(F)cc2)n1C | 7.25
54 | N#C/C(=C\c1ccc(O)cc1)C(=O)NCc1ccccc1 | 11.2
55 | Clc1cccc(Cl)c1C[n+]1cccc2ccccc21.[Br-] | -6.58
56 | CCSc1nc(O)cc(=O)n1-c1ccc(OC)cc1 | 9.36
57 | COc1ccc(CNc2ncc(-c3ccccc3)n2C)cc1 | 12.8
58 | COc1cc(/C=N/n2c(C)nnc2C)cc(OC)c1OC | 5.83
59 | O=C1CCN(CCc2ccccc2)CCN1[C@H](CO)c1ccccc1 | -7.26
60 | O=C(c1ccccc1Cl)N1CCN(Cc2ccc3c(c2)OCO3)CC1 | -2.01
61 | COCCNC(=O)c1ccc2c(c1)S(=O)(=O)c1cc(Cl)ccc1C2=O | 10.6
62 | O=C(COC(=O)c1ccc(Br)o1)NCC1CCCO1 (centres unmarked) | 2.18
63 | Fc1ccc(OCCCCCn2ccnc2)cc1 | 5.69
64 | Cc1sc2ncn3ncnc3c2c1C | 18
65 | Cn1c(SCc2c(F)cccc2Cl)nc2c(c1=O)SCC2 | 13.7
66 | O=C1CCC(c2ccc(-n3ccnc3)cc2)=NN1 | 9.44
67 | COc1cc([N+](=O)[O-])ccc1NC(=O)C[n+]1ccccc1.[Cl-] | 5.94
68 | Cc1nc2ccc(S(=O)(=O)NCC(=O)NCCc3ccc(Cl)cc3)cc2s1 | 27.5
69 | O=C1C(c2ccc(F)cc2)N(Cc2ccc3c(c2)OCO3)C(=O)CN1C1CCCCC1 (centres unmarked) | 3.53

Row | Structure (SMILES) | hERG current change (%, negative = inhibition) at 1uM [%]
70 | CC(=O)NC(CC(=O)Nc1cccc(S(=O)(=O)N2CCCCC2)c1)c1ccccc1 (centres unmarked) | 6.54
71 | Cc1cc(NC(=O)CSc2ccc3nnc(-c4ccc(Cl)cc4)n3n2)no1 | 0.212
72 | COCCn1c(=O)[nH]c2cc(C(=O)Nc3ccc(OC)c(Cl)c3)ccc2c1=O | 12.7
73 | CCOC(=O)c1ccc(NC(=O)c2c(O)[nH]c(=O)[nH]c2=O)cc1 | 14.2
74 | COc1ccccc1CNC(=O)c1ccc2c(=O)n(CC3CCCO3)c(=S)[nH]c2c1 (centres unmarked) | 10.9
75 | Cc1ccc(S(=O)(=O)/N=C(\CCl)N2CCOCC2)cc1 | 7.88
76 | CC(=O)Nc1ccc(NC(=O)COc2c(C)cc(Br)cc2C)cc1 | 7.02
77 | COc1ccc(C2C(C(=O)Nc3ccccc3OC)=C(C)Nc3ncnn32)cc1 (centres unmarked) | -5.28
78 | CCOC(=O)c1cc2c(c(CSc3nc4ccccc4c(=O)n3Cc3ccco3)c1)OCOC2 | 19.9
79 | CCN(CC)C(=O)c1ccc(-c2nnc(Nc3ccc(C(=O)NC)cc3)c3ccccc23)cc1 | 6.17
80 | Cc1ccc(Cl)cc1N1CCN(S(=O)(=O)c2ccc3[nH]c(=O)c(=O)[nH]c3c2)CC1 | 20.8
81 | CN1CCN(c2nc3ccccn3c(=O)c2C=C2C(=O)N(C)C(=O)N(C)C2=O)CC1 | 14.4
82 | COc1ccc(Cl)cc1NC(=O)C1CSC(c2ccncc2)=N1 (centres unmarked) | 10.6
83 | CCOC(=O)N1CCN(C(=O)CN(Cc2ccccc2)S(=O)(=O)c2ccc(OC)c(C)c2)CC1 | 6.12
84 | COc1ccc(N2CCN(C3CCCCC3NS(=O)(=O)c3ccccc3)CC2)cc1 (centres unmarked) | 11.3
85 | Cc1cc(C)cc(C(=O)OCC(=O)N2CCCCCC2)c1 | 11.2
86 | O=C(Oc1cccc2c(OC(=O)N3CCOCC3)cccc12)N1CCOCC1 | 17.5
87 | Cc1cc(C)cc(-n2nnn(C3C/C(=N/NC(N)=S)C4OCC3O4)c2=S)c1 (centres unmarked) | 14.4
88 | CC(C)c1c(C(=O)N/N=C/c2cccc3ccccc23)nnn1-c1nonc1N | 16.3
89 | CCN(Cc1nc2cc(Cl)ccc2c(=O)[nH]1)C(=O)COc1ccccc1Cc1ccccc1 | 3.97
90 | CN1CCN(CCCNC(=O)c2cc3c(=O)n(C)c4ccccc4c3s2)CC1 | 10.5
91 | CC(C)(C)c1ccc(/C=N/NC(=O)C2CCCC2)cc1 | 13.4
92 | Cc1ccc(-n2c(CNc3ccc(F)cc3)nnc2SCC(=O)N2CCCC2)cc1 | 5.65
